System: CHO-K1 cells
Assay: Mammalian cell HPRT gene mutation assay
Conditions: CHO-K1 cells, 10, 3 and 1 μM, after 6-thioguanine selection
Procedure: (§1) FIG. 3 is a chart showing the results of a mammalian cell HPRT gene mutation assay: CHO-K1 cells (hamster cell line) were treated with drugs at the concentration of 10, 3 and 1 μM. After 6-thioguanine selection, resistant cell colonies were counted as a measure of HPRT knockout mutations in host cells.
as §1, with “The results are shown in FIG. 3 and in the following table. FIG.” for “FIG.”

SMILES: [2H]C1(O)C(O)[C@H](n2ccc(NO)nc2=O)O[C@@H]1CO (stereo partly drawn) [D-NHC]
- reduction of the number of 6-thioguanine resistant colonies formed (HPRT knockout mutations) compared with NHC: about 50%
